# According to PMC6919601, “Identification of Plasmodium dipeptidyl aminopeptidase allosteric inhibitors by high throughput screening” (PLoS ONE, 2019):
# Where “and” joins values, the source holds several entries; their conditions need not be identical. Equal values may be shown once. In all, about 110,000 compounds went through this assay and about 230 (0.21%) showed an effect of 50% or more. The list shows a part of the results.
# Molecular target: DPAP1 (Plasmodium falciparum, UniProt Q8IIJ9)
# Sequence (Q8IIJ9 whole entry, looked up): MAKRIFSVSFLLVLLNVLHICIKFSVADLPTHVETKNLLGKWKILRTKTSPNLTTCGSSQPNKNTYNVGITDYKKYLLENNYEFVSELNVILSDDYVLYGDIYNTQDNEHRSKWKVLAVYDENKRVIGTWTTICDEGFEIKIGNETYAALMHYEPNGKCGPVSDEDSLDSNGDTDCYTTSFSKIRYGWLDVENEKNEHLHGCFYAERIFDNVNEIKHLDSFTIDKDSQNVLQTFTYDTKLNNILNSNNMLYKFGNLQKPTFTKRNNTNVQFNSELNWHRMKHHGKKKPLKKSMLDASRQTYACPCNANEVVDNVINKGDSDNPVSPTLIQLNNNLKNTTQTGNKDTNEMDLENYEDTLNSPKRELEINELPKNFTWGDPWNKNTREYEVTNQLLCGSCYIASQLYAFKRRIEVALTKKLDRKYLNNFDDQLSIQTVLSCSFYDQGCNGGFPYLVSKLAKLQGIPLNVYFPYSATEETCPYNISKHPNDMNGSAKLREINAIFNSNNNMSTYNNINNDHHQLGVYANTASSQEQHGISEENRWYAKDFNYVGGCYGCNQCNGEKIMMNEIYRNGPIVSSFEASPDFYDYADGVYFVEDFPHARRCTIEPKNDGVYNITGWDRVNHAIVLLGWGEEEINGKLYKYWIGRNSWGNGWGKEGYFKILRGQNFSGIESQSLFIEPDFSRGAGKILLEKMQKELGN
# Test: primary screen, percent inhibition; read by cleavage of a fluorogenic dipeptide substrate; higher = more effect of the substance
# Set-up: species or system P. falciparum D10 trophozoite lysates; single well
# 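Also: 30 min substrate incubation versus DMSO and 10 µM JCP410 controls.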
row,Compound,% Inhibition @ 10 uM
1,CC(C)(C)c1ccc2c(c1)C1c3ccc(C(C)(C)C)cc3C2C2C(=O)N(c3ccc(-c4ccc(Cl)cc4)cc3)C(=O)C12 (stereo not shown),3.98%
2,COc1cc(C)c(CN2CC(C)OC(C)C2)cc1C (stereo not shown),-5.11%
3,CCOc1ccccc1/C=C(\C#N)c1nc(-c2ccc(C)cc2C)cs1,0.912%
4,Cc1cccc(-n2ncc3c(NCCC4=CCCCC4)ncnc32)c1,7.63%
5,CCO/C(O)=C1\C(C)=NC(=S)NC1c1cccc(Br)c1 (stereo not shown),-0.0648%
6,O=C(c1nc(S(=O)(=O)Cc2ccccc2)ncc1Cl)N1CCC(Cc2ccccc2)CC1,-4.54%
7,Cc1n[nH]c(C)c1Nc1cnn(C23CC4CC(CC(C4)C2C(=O)O)C3)c(=O)c1Cl (stereo not shown),1.15%
8,COc1ccc(-c2noc(CC#N)n2)cc1,-4.58%
9,O=C(CSc1nc2ccccc2[nH]1)Nc1nnc(-c2ccccc2)s1,-1.6%
10,Cc1ccc(C(=O)Nc2ccc(C)c(Cl)c2)cc1,-4.08%
11,Cc1nn(C)cc1CNC(=O)c1cc2n(n1)C(C(F)(F)F)CC(c1ccc(Cl)cc1)N2 (stereo not shown),3.67%
12,CNC1=NC(=O)CC(C(=O)Nc2cccc(OC)c2)S1 (stereo not shown),3.91%
13,CCOc1ccc(NC(=O)c2ccc(Cl)c(Cl)c2)cc1,-6.33%
14,Cc1ccc2oc(C(=O)Nc3sc4c(c3C(=O)NCCc3ccccc3)CCC4)cc(=O)c2c1,0.248%
15,CC1(c2ccccc2)CC(c2ccccc2)=C(C#N)C(=C(C#N)C#N)N1 (stereo not shown),13.2%
16,N#CC1=C2c3ccccc3CC3(CCCCC3)N2C(=O)C1=O,-1.98%
17,COc1ccc(N2C(=O)NC(=O)/C(=C/c3ccc(SC)cc3)C2=O)cc1,-11.8%
18,Brc1ccc(/C=N/c2nc3ccccc3n2CCN2CCCCC2)cc1,19.2%
19,COc1ccc(C2C(C(N)=O)=C(C)Nc3nc(SCc4ccccc4Cl)nn32)c(OC)c1 (stereo not shown),-4.02%
20,CN1C(=O)c2ccccc2C(C(=O)NCc2ccc3c(c2)OCO3)C1c1cn(C)c2ccccc12 (stereo not shown),4.63%
21,COc1ccc2oc(=O)c(C(=O)N3CCOCC3)cc2c1,3.01%
22,CCn1c2ccccc2c2cc(CN3CCN(c4ccc(Cl)cc4)CC3)ccc21,-6.21%
23,CCc1ccc(CNc2ccc(O)cc2)cc1,1.37%
24,COc1ccc(C2C(C(=O)c3ccc(C)cc3)=C(O)C(=O)N2Cc2cccnc2)cc1 (stereo not shown),-8.67%
25,COc1ccc(C(=O)Nc2nn3c(-c4ccco4)nnc3s2)cc1,0.00665%

row,Compound,% Inhibition @ 10 uM
1,O=C(CN1CCOCC1)N(C1CCCCC1)C1CCCCC1,-0.999% and 0.565%
2,CC(C)C(=O)N1CCN(c2ccc(NC(=O)Cc3ccccc3)cc2)CC1,-5.14%
3,O=C(CCNS(=O)(=O)c1ccc2nc(O)ccc2c1)NCc1ccc(Cl)cc1,-4.63%
4,O=C(NCCCN1CCN(Cc2ccccc2)CC1)c1nnc(Cc2ccc(Cl)cc2Cl)o1,9.59%
5,Cc1nn(C(=O)CCC(=O)N2CC(C)CC(C)C2)c2ccccc12 (stereo not shown),5.39%
6,N#CCNC(=O)[C@H](CC1CCCCC1)NC(=O)c1ccc(F)c(F)c1,-3.49%
7,N#C/C(=C\c1c(Oc2ccc(Cl)cc2)nc2ccccn2c1=O)C(=O)NCC1CCCO1 (stereo not shown),-4%
8,N#C/C(=C/c1ccc(F)cc1)c1nc(-c2ccccc2)cs1,3.06%
9,CC(=O)NC1=NN(C(C)=O)C(C)(c2cccc(Br)c2)S1 (stereo not shown),1.37%
10,COc1ccc(/C=C2\S/C(=N/c3cccc(C(=O)O)c3)N(C)C2=O)cc1O,6.98%
11,c1ccc(-c2ccc(-n3cnc4ccccc43)cc2)cc1,-6.88%
12,COc1ccc(C(=O)c2sc3nc(C)c(C(=O)Nc4ccccc4)c(C)c3c2N)cc1,-0.366%
13,COc1ccc(-c2nnc3n(CCc4ccccc4)c(=O)c4ccccc4n23)c(O)c1,-3.51%
14,CC(C)C(NS(=O)(=O)c1cccc2nsnc12)C(=O)NCc1ccccc1Cl (stereo not shown),-4.1%
15,O=C(CN1CCOCC1)Nc1sc2c(c1C(=O)Nc1ccc(Br)cc1)CCCCC2,1.49%
16,CCN(CC)CC(O)COc1ccc(C23CC4CC(CC(C4)C2)C3)cc1 (stereo not shown),-2.55%
17,CCCS(=O)(=O)N1CCC(C(=O)NC)CC1,3.24%
18,CC(=O)Nc1cc(-c2cccc(Br)c2)nn1-c1ccccc1,-2.39%
19,CCN1CCN(C(C)Cc2ccc(F)cc2)CC1 (stereo not shown),0.0792%
20,Cc1cc(C(=O)NCCC(C)C)c2c(C)nn(-c3ccccc3Cl)c2n1,0.44%
21,Oc1cccc(CN2CCN(c3cccc(Cl)c3)CC2)c1,-0.0404%
22,COc1ccc(/C=c2\sc3n(c2=O)CN(c2ccc4c(c2)OCO4)CN=3)cc1OC,1.67%
23,CCOC(=O)N1CCC(NCc2c(C(=O)O)n(CC)c3ccccc23)CC1,-5.05%
24,CCOC(=O)N1CCN(C(=O)CSC2=NN3CCCC(=O)N=C3S2)CC1,-1.14%
25,COc1ccc(/C=N/N=C(N)N)cc1OC,-1.03%

row,Compound,% Inhibition @ 10 uM
1,O=[N+]([O-])c1ccc(-n2nc3ccc4ccccc4c3n2)cc1,3.06%
2,CCOCCCNC(=O)c1ccc2[nH]c(C)c(C)c2c1,-0.127%
3,CCCCC(=O)Nc1ccc2c(c1)oc1ccccc12,-4.57%
4,CCOc1cc2c(cc1/C=C1/NC(=O)N(c3cccc(Cl)c3)C1=O)OCO2,-4.15%
5,O=C(O)c1cccc(NS(=O)(=O)c2ccc(Cl)c(C(=O)O)c2)c1,-3.55%
6,OCC1CCCCN1Cc1cccc(Cl)c1 (stereo not shown),-2.36%
7,O=C(Nc1ccccc1Cl)NC1CCCCC1,3%
8,N#CC1=C(N)Oc2cc(O)c(Cl)cc2C1c1ccncc1 (stereo not shown),2.46%
9,CC(C)NC(=O)c1ccc2nc(N3CCCCC3)sc2c1,2.65%
10,O=C(O)c1ccccc1SCCc1ccccn1,4.22%
11,Clc1ccc2c(c1)CC(NCCCN1CCOCC1)c1ccccc1S2 (stereo not shown),-11.2%
12,COc1ccc(C(CC(=O)O)NS(=O)(=O)c2cccc3nsnc23)cc1 (stereo not shown),-1.24%
13,Brc1ccccc1OCCN1CCCCC1,-0.0953%
14,CCO/C(O)=C/C1=Nc2ccccc2NC(=O)C1,1.74%
15,Cc1ccc(CNC(=O)c2nnc(-c3ccc4c(c3)OCO4)o2)cc1,-1.97%
16,Cc1cccc(-n2nnnc2C2(/N=C/c3ccccc3)CCCCC2)c1,-1.68%
17,COCCNC(=O)C1c2ccccc2C(=O)N2CCc3ccccc3C12 (stereo not shown),-5.77%
18,O=C(CCn1c(=O)c2cccn2c2cccnc21)NCc1cccc(Cl)c1,-6.67%
19,CC[C@H](NC(=O)[C@H](CC1(C)CCCCC1)/N=C(\C)NS(=O)(=O)c1cccnc1)C(=O)c1nc(-c2ccccc2)no1,-1.5%
20,C=CC/N=C/c1c(NCC=C)nc2c(C)cccn2c1=O,-3.75%
21,Cc1nc2c(-c3ccc(F)cc3)c(C)nn2c(C)c1CCC(=O)NC(C)c1cccs1 (stereo not shown),6.1%
22,N#Cc1c(N)nc(SCC(=O)c2ccc(Cl)cc2)c(C#N)c1-c1ccco1,-1.97%
23,COc1cc(NS(=O)(=O)c2ccc(NC(=S)NC(=O)/C=C/c3ccccc3)cc2)nc(OC)n1,9.31%
24,CCC(=O)n1cc(/C=C2\S/C(=N\C)N(C)C2=O)c(-c2ccccc2)n1,0.685%
25,CC(=O)c1c(C)[nH]c(C(=O)NCCc2ccc(Cl)cc2)c1C,-8.06%

row,Compound,% Inhibition @ 10 uM
1,COc1ccc2c(C)cc(=O)oc2c1C(C)=O,-7.86%
2,CCOC(=O)N1CCC(c2cc(O)n3nc(-c4ccccc4)cc3n2)CC1,-2.83%
3,O=C(COc1ccc(Cl)cc1Cl)N1CCCCC1,-4.94%
4,COC(=O)c1cc(S(=O)(=O)NCCCc2ccccc2)cn1C,-2.84%
5,COc1ccc(N(CC(N)=O)S(=O)(=O)c2ccccc2)cc1OC,0.408%
6,CCN(CC)CCN(C)C(=O)C(O)(c1ccccc1)c1ccccc1,0.131%
7,COc1cc(NC(=O)C(C)C)ccc1NC(=O)C(C)C,1.72%
8,CCc1ccc(C(=O)C2CCCCC2)cc1,2.8%
9,O=c1c2cccc3c(Br)ccc(c32)c2nc3ccccc3n12,-4.5%
10,CCCNC(=O)Nc1[nH]c(C)c(C(=O)OCC)c1C,1%
11,COc1cc(Br)cc2c1Oc1nc(-c3cccc(OC)c3OC)nc(O)c1C2,11.2%
12,Clc1ccc(-c2nnc(-c3ccc4c(c3)OCO4)o2)c(Cl)c1,3.95%
13,COC(=O)C1=CN(Cc2ccc(OC)c(OC)c2)C=C(C(=O)OC)C1c1ccc(C)s1,-6.93%
14,CNc1sc(S(C)(=O)=O)nc1S(=O)(=O)c1ccc(C)cc1,-0.522%
15,NS(=O)(=O)c1ccc(CC/N=C/C2=C(O)c3ccccc3C2=O)cc1,7.73%
16,Cc1ccc(S(=O)(=O)N2CCSC2c2ccc(Cl)cc2)cc1 (stereo not shown),3.82%
17,Cc1cc(C)n(C(=O)c2sc3cc(F)ccc3c2Cl)n1,2.46%
18,Cc1sc2ncnc(SCC(=O)O)c2c1C,0.708%
19,Cc1nc2scc(C)n2c(=O)c1S(=O)(=O)NC1CCCCCCC1,72.2%
20,COc1ccc(CC/N=c2\cc(O)oc3ccccc23)cc1OC,0.189%
21,COC(=O)C1=C(C)N(CC2CCCO2)C(=O)/C1=C\c1ccc(C)cc1 (stereo not shown),1.81%
22,CC(C)(C)NCCCCOc1ccccc1,3.42%
23,CC(C)(C)c1ccc(/C=N/n2cnnc2)cc1,-3.71%
24,Cc1n[nH]c(SCc2cccc(CSc3n[nH]c(C)n3)c2)n1,1.63%
25,CC(C)C[C@H](NC(=O)c1cccc(OC(F)F)c1)C(=O)NCC#N,-4.72%
